Consider three molecules from article PMC3930761.

Protein sequences, listed by entry. Tags and fused reporters are not part of them. Lines headed by an entry give the natural chain unless they say otherwise; changes in a name come on top. Residues count along the entry.
UniProt Q09472: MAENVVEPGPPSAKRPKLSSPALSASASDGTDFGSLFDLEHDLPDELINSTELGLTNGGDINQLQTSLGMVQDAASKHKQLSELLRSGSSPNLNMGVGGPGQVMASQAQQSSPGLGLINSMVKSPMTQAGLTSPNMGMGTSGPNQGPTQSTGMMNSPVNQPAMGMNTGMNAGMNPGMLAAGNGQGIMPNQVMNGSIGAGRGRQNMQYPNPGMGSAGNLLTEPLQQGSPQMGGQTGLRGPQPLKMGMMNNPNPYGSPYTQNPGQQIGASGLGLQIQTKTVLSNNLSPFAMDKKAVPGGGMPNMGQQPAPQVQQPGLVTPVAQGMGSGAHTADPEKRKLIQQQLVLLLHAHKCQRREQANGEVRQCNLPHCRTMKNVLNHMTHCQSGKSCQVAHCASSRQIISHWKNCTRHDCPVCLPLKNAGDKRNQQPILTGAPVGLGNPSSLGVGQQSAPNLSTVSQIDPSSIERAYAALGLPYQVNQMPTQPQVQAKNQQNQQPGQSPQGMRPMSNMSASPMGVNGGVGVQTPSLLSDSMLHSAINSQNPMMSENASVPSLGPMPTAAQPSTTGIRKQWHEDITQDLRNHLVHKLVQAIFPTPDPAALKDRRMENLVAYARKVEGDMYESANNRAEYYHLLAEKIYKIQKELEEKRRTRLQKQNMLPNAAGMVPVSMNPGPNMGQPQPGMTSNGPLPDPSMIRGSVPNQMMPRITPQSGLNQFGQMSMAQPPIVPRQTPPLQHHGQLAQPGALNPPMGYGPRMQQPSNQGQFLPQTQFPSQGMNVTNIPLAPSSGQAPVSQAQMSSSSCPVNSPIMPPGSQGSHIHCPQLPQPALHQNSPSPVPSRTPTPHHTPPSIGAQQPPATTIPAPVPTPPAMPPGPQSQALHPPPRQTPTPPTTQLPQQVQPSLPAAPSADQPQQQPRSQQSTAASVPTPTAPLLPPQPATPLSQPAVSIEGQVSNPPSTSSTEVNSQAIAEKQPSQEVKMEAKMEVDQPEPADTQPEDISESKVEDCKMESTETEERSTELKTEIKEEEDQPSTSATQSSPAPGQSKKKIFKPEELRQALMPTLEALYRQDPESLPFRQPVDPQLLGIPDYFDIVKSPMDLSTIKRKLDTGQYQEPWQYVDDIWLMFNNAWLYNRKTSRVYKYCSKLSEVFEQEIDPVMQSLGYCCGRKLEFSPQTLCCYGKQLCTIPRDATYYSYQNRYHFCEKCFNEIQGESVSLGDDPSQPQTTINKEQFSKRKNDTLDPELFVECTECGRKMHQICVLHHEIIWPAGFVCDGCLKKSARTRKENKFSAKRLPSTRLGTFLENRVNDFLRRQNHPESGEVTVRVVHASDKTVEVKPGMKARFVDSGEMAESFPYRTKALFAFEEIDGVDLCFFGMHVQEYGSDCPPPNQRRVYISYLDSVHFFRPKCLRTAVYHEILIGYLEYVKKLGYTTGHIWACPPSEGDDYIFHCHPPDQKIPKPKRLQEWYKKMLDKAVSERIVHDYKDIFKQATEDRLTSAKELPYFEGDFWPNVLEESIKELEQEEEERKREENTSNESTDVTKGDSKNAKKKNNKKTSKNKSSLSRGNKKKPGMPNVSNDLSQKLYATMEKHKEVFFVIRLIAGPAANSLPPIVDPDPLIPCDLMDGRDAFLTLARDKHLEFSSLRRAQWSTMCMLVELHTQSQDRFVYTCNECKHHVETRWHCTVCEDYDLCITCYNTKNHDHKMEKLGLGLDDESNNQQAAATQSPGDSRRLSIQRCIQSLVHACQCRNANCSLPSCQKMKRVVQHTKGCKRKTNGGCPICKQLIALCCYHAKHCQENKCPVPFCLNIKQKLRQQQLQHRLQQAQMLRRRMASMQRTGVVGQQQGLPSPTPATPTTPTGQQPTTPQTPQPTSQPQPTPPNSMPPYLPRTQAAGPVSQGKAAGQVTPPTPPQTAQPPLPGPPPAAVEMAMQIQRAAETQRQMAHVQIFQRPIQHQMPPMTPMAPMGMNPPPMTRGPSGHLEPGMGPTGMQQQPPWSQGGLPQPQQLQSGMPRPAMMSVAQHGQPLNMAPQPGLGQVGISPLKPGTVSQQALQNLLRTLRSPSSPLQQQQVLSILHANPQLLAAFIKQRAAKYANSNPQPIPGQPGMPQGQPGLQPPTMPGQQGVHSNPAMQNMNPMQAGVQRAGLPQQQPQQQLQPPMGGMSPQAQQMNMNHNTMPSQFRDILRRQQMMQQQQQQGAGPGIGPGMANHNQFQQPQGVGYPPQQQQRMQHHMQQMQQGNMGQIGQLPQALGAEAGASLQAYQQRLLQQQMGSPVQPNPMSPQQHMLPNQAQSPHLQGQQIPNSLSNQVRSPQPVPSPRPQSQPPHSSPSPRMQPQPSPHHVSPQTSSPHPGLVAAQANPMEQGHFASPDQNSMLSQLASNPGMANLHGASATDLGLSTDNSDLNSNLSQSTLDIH
p300ΔC-820 (endogenous, SUDHL2 cells) (human (endogenous in SUDHL2)): residues 1-820 of Q09472
GST-p300-CH1 (aa 300-528): residues 300-528 of Q09472
GST-p300-N340 (aa 340-528): residues 340-528 of Q09472

Results are given in words; binding and its absence hold for the method and conditions named. In cells and extracts the contact can be indirect. Some entries that bind do so weakly or less than the wild type. For some assays here: Tags and fused reporters may be left off the sequences shown.

One assay concerns the target T1, GST-REL-TAD (aa 324-587) (UniProt Q04864).
T1 sequence: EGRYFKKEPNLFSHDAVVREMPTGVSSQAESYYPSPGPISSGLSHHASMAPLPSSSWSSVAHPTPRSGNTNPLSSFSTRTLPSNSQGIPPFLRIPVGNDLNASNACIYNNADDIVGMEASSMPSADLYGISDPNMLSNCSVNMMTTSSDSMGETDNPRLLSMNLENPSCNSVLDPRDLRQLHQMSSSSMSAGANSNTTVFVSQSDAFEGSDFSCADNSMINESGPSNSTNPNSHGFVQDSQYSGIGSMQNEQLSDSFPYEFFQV
Briefly: pull-down; GST fusion protein as bait, incubated with whole-cell extracts (SUDHL2 or A293); bound proteins detected by anti-p300 or anti-REL Western blotting; done as in ref. 10; only the target purified. In general terms: In western blotting, separated proteins are transferred to a membrane and probed.

The target in assay [1] is p300ΔC-820 (endogenous, SUDHL2 cells) (human (endogenous in SUDHL2)) (UniProt Q09472). The assay can be described thus: co-IP; endogenous proteins; SUDHL2 nuclear extract (250 μg) with anti-p300 antiserum in IP Low Buffer 3 h at 4°C, Protein A Sepharose; anti-REL and anti-p300 Western blotting.
The target in assay [2] is GST-p300-N340 (aa 340-528) (UniProt Q09472). Briefly: pull-down; GST fusion protein as bait, incubated with whole-cell extracts (SUDHL2 or A293); bound proteins detected by anti-p300 or anti-REL Western blotting; done as in ref. 10; only the target purified.
Assay [3] has as its target GST-p300-CH1 (aa 300-528) (UniProt Q09472). The description is as above.

Consider “wild-type p300 (endogenous, A293 cells) (from UniProt Q09472 1-2414)”, for which the binding result with GST-REL-TAD (aa 324-587) was “binds”. For the molecule “p300ΔC-820 (endogenous, SUDHL2 cells) (from UniProt Q09472 1-820)”, in the assay with GST-REL-TAD (aa 324-587), the binding result is given as “binds”.

B1: REL (endogenous, SUDHL2 cells) (protein, UniProt Q04864 1-619)
chain: MASGAYNPYIEIIEQPRQRGMRFRYKCEGRSAGSIPGEHSTDNNRTYPSIQIMNYYGKGKVRITLVTKNDPYKPHPHDLVGKDCRDGYYEAEFGQERRPLFFQNLGIRCVKKKEVKEAIITRIKAGINPFNVPEKQLNDIEDCDLNVVRLCFQVFLPDEHGNLTTALPPVVSNPIYDNRAPNTAELRICRVNKNCGSVRGGDEIFLLCDKVQKDDIEVRFVLNDWEAKGIFSQADVHRQVAIVFKTPPYCKAITEPVTVKMQLRRPSDQEVSESMDFRYLPDEKDTYGNKAKKQKTTLLFQKLCQDHVETGFRHVDQDGLELLTSGDPPTLASQSAGITVNFPERPRPGLLGSIGEGRYFKKEPNLFSHDAVVREMPTGVSSQAESYYPSPGPISSGLSHHASMAPLPSSSWSSVAHPTPRSGNTNPLSSFSTRTLPSNSQGIPPFLRIPVGNDLNASNACIYNNADDIVGMEASSMPSADLYGISDPNMLSNCSVNMMTTSSDSMGETDNPRLLSMNLENPSCNSVLDPRDLRQLHQMSSSSMSAGANSNTTVFVSQSDAFEGSDFSCADNSMINESGPSNSTNPNSHGFVQDSQYSGIGSMQNEQLSDSFPYEFFQV
Take B1: the binding result was “binds” in assay [1], “no binding” in assay [2] and “binds” in assay [3].
